Reference: the supplement of paper PMC8728848
The list shows a part of the results.

How the values were obtained:
Experiment in all cases: glycan array binding signal (z-score within array); higher = stronger binding
Details in all cases: glycan notation: IUPAC condensed, linker removed; mutation: R349A
[1] = molecular target: Man(a1-3)[Man(a1-6)]Man(a1-6)[Man(a1-2)Man(a1-3)]Man(b1-4)GlcNAc(b1-4)GlcNAc
Outline: (§1)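 Glycan array data were curated from 3228 arrays in the Consortium for Functional Glycomics database and kept only where the protein sequence was available. Glycan names were converted to IUPAC-condensed notation, and columns mapping to the same glycan were averaged. The binding signal is a within-array Z-score, averaged across arrays of the same protein sequence at different concentrations or buffers and across linkers. Negative Z-scores can be read as non-binding.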

[2] = molecular target: Man(a1-3)[Man(a1-6)]Man(a1-6)[Man(a1-3)]Man
Outline: as §1

[3] = molecular target: Man(a1-3)[Man(a1-6)]Man(a1-6)[Man(a1-3)]Man(b1-4)GlcNAc(b1-4)GlcNAc
Outline: as §1

[4] = molecular target: Man(a1-3)[Man(a1-6)]Man(b1-4)GlcNAc(b1-4)GlcNAc
Outline: as §1

Man(a1-6)Man = molecular target: Man(a1-6)Man
Outline: as §1

Man(b1-4)GlcNAc = molecular target: Man(b1-4)GlcNAc
Outline: as §1

Neu5Ac(a2-3)Gal = molecular target: Neu5Ac(a2-3)Gal
Outline: as §1

[5] = molecular target: Neu5Ac(a2-3)Gal(b1-3)GalNAc
Outline: as §1

[6] = molecular target: Neu5Ac(a2-3)Gal(b1-3)GalNAc(b1-3)Gal(a1-4)Gal(b1-4)Glc
Outline: as §1

[7] = molecular target: Neu5Ac(a2-3)Gal(b1-3)GalNAc(b1-3)Gal(b1-4)GlcNAc
Outline: as §1

[8] = molecular target: Neu5Ac(a2-3)Gal(b1-3)GalNAc(b1-4)[Neu5Ac(a2-3)]Gal(b1-4)Glc
Outline: as §1

[9] = molecular target: Neu5Ac(a2-3)Gal(b1-3)GalNAc6S
Outline: as §1

[10] = molecular target: Neu5Ac(a2-3)Gal(b1-3)GlcNAc
Outline: as §1

[11] = molecular target: Neu5Ac(a2-3)Gal(b1-3)GlcNAc(b1-3)Gal(b1-3)GlcNAc
Outline: as §1

[12] = molecular target: Neu5Ac(a2-3)Gal(b1-3)GlcNAc6S
Outline: as §1

[13] = molecular target: Neu5Ac(a2-3)Gal(b1-3)[Fuc(a1-4)]GlcNAc
Outline: as §1

[14] = molecular target: Neu5Ac(a2-3)Gal(b1-3)[Fuc(a1-4)]GlcNAc(b1-3)Gal(b1-4)[Fuc(a1-3)]GlcNAc
Outline: as §1

[15] = molecular target: Neu5Ac(a2-3)Gal(b1-3)[Neu5Ac(a2-3)Gal(b1-4)]GlcNAc
Outline: as §1

[16] = molecular target: Neu5Ac(a2-3)Gal(b1-3)[Neu5Ac(a2-6)]GalNAc
Outline: as §1

Neu5Ac(a2-3)Gal(b1-4)Glc = molecular target: Neu5Ac(a2-3)Gal(b1-4)Glc
Outline: as §1

[17] = molecular target: Neu5Ac(a2-3)Gal(b1-4)GlcNAc
Outline: as §1

[18] = molecular target: Neu5Ac(a2-3)Gal(b1-4)GlcNAc(b1-2)Man(a1-3)[GlcNAc(b1-2)Man(b1-4)GlcNAc(b1-2)Man(a1-6)]Man(b1-4)GlcNAc(b1-4)GlcNAc
Outline: as §1

[19] = molecular target: Neu5Ac(a2-3)Gal(b1-4)GlcNAc(b1-2)Man(a1-3)[Neu5Ac(a2-6)Gal(b1-4)GlcNAc(b1-2)Man(a1-6)]Man(b1-4)GlcNAc(b1-4)GlcNAc
Outline: as §1

[20] = molecular target: Neu5Ac(a2-3)Gal(b1-4)GlcNAc(b1-3)Gal(b1-3)GlcNAc
Outline: as §1

[21] = molecular target: Neu5Ac(a2-3)Gal(b1-4)GlcNAc(b1-3)Gal(b1-4)GlcNAc
Outline: as §1

[22] = molecular target: Neu5Ac(a2-3)Gal(b1-4)GlcNAc(b1-3)Gal(b1-4)GlcNAc(b1-3)Gal(b1-4)GlcNAc
Outline: as §1

[23] = molecular target: Neu5Ac(a2-3)Gal(b1-4)GlcNAc(b1-3)Gal(b1-4)[Fuc(a1-3)]GlcNAc
Outline: as §1

[24] = molecular target: Neu5Ac(a2-3)Gal(b1-4)GlcNAc(b1-6)[Gal(b1-3)]GalNAc
Outline: as §1

[25] = molecular target: Neu5Ac(a2-3)Gal(b1-4)GlcNAc(b1-6)[Neu5Ac(a2-3)Gal(b1-3)]GalNAc
Outline: as §1

[26] = molecular target: Neu5Ac(a2-3)Gal(b1-4)GlcNAc6S
Outline: as §1

[27] = molecular target: Neu5Ac(a2-3)Gal(b1-4)[Fuc(a1-3)]GlcNAc
Outline: as §1

[28] = molecular target: Neu5Ac(a2-3)Gal(b1-4)[Fuc(a1-3)]GlcNAc(b1-3)Gal
Outline: as §1

[29] = molecular target: Neu5Ac(a2-3)Gal(b1-4)[Fuc(a1-3)]GlcNAc(b1-3)Gal(b1-4)GlcNAc
Outline: as §1

[30] = molecular target: Neu5Ac(a2-3)Gal(b1-4)[Fuc(a1-3)]GlcNAc(b1-3)Gal(b1-4)[Fuc(a1-3)]GlcNAc(b1-3)Gal(b1-4)[Fuc(a1-3)]GlcNAc
Outline: as §1

[31] = molecular target: Neu5Ac(a2-3)Gal(b1-4)[Fuc(a1-3)]GlcNAc(b1-6)[Gal(b1-3)]GalNAc
Outline: as §1

[32] = molecular target: Neu5Ac(a2-3)Gal(b1-4)[Fuc(a1-3)]GlcNAc6S
Outline: as §1

[33] = molecular target: Neu5Ac(a2-3)Gal6S(b1-4)GlcNAc
Outline: as §1

B1: Surfactant Protein D (Human); Neck + Carbohydrate Recognition Domain (NCRD) (Homo sapiens) (protein)
chain: MLLFLLSALVLLTQPLGYLEAEMKTYSHRTMPSACTLVMCSSVESGLPGRDRDGREGPRGEKGDPGLPGAAGQAGMPGQAGPVGPKGDNGSVGEPGPKGDTGPSGPPGPPGVPGPAGREGALGKQGNIGPQGKPGPKGEAGPKGEVGAPGMQGSAGARGLAGPKGERGVPGERGVPGNTGAAGSAGAMGPQGSPGARGPPGLKGDKGIPGDKGAKGESGLPDVASLRQQVEALQGQVQHLQAAFSQYKKVELFPNGQSVGEKIFKTAQFVKPFTEAQLLCTQAGGQLASPRSAAENAALQQLVVAKNEAAFLSMTDSKTEGKFTYPTGESLVYSNWAPGEPNDDGGSEDCVEIFTNGKWNDRACGEKALVVCEF
glycan array binding signal (z-score) [1]: 7.39
glycan array binding signal (z-score) [2]: -0.3
glycan array binding signal (z-score) [3]: 0.186
glycan array binding signal (z-score) [4]: -0.486
glycan array binding signal (z-score) (Man(a1-6)Man): -0.447
glycan array binding signal (z-score) (Man(b1-4)GlcNAc): -0.16
glycan array binding signal (z-score) (Neu5Ac(a2-3)Gal): -0.24
glycan array binding signal (z-score) [5]: -0.229
glycan array binding signal (z-score) [6]: -0.379
glycan array binding signal (z-score) [7]: -0.014
glycan array binding signal (z-score) [8]: 0.154
glycan array binding signal (z-score) [9]: 1.43
glycan array binding signal (z-score) [10]: -0.356
glycan array binding signal (z-score) [11]: -0.194
glycan array binding signal (z-score) [12]: -0.691
glycan array binding signal (z-score) [13]: -0.153
glycan array binding signal (z-score) [14]: -0.314
glycan array binding signal (z-score) [15]: 0.238
glycan array binding signal (z-score) [16]: -0.063
glycan array binding signal (z-score) (Neu5Ac(a2-3)Gal(b1-4)Glc): -0.276
glycan array binding signal (z-score) [17]: 0.011
glycan array binding signal (z-score) [18]: 0.008
glycan array binding signal (z-score) [19]: 0.301
glycan array binding signal (z-score) [20]: 0.839
glycan array binding signal (z-score) [21]: -0.19
glycan array binding signal (z-score) [22]: 1.44
glycan array binding signal (z-score) [23]: 0.581
glycan array binding signal (z-score) [24]: -0.637
glycan array binding signal (z-score) [25]: -0.484
glycan array binding signal (z-score) [26]: 0.679
glycan array binding signal (z-score) [27]: 0.282
glycan array binding signal (z-score) [28]: 0.555
glycan array binding signal (z-score) [29]: 0.031
glycan array binding signal (z-score) [30]: -0.593
glycan array binding signal (z-score) [31]: 0.266
glycan array binding signal (z-score) [32]: 0.051
glycan array binding signal (z-score) [33]: 0.308
